{"source": "the supplement of paper PMC8728848", "binders": {"B1": {"name": "SGC, Q9M345 (protein)", "chain": "QNLNFTYNGFHPPLTDISLQGLATVTPNGLLKLTNTSVQKTGHAFCTERIRFKDSQNGNVSSFSTTFVFAIHSQIPTLSGHGIAFVVAPTLGLPFALPSQYIGLFNISNNGNDTNHIFAVEFDTIQSSEFGDPNDNHVGIDLNGLRSANYSTAGYRDDHDKFQNLSLISRKRIQVWIDYDNRSHRIDVTVAPFDSDKPRKPLVSYVRDLSSILLEDMYVGFSSATGSVLSEHFLVGWSFRLNGEAPMLSLSKLPKLPRFEPRRIS"}}, "assay_in_all_cases": "glycan array binding signal (z-score within array); higher = stronger binding", "details_in_all_cases": "glycan notation: IUPAC condensed, linker removed", "key": {"Fuc(a1-2)Gal": {"target": "Fuc(a1-2)Gal", "in_short": "(§1)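 Columns mapping to the same glycan were averaged after glycan names were converted to IUPAC-condensed notation. The data come from 3228 arrays in the Consortium for Functional Glycomics database, limited to those with an available protein sequence. Binding is reported as a within-array Z-score averaged across arrays of one protein sequence and across linkers.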"}, "Fuc(a1-2)Gal(b1-3)GalNAc": {"target": "Fuc(a1-2)Gal(b1-3)GalNAc", "in_short": "as §1"}, "[1]": {"target": "Fuc(a1-2)Gal(b1-3)GalNAc(a1-3)[Fuc(a1-2)]Gal(b1-4)Glc", "in_short": "as §1"}, "[2]": {"target": "Fuc(a1-2)Gal(b1-3)GalNAc(a1-3)[Fuc(a1-2)]Gal(b1-4)GlcNAc", "in_short": "as §1"}, "[3]": {"target": "Fuc(a1-2)Gal(b1-3)GalNAc(b1-3)Gal", "in_short": "as §1"}, "[4]": {"target": "Fuc(a1-2)Gal(b1-3)GalNAc(b1-3)Gal(a1-4)Gal(b1-4)Glc", "in_short": "as §1"}, "[5]": {"target": "Fuc(a1-2)Gal(b1-3)GalNAc(b1-4)[Neu5Ac(a2-3)]Gal(b1-4)Glc", "in_short": "as §1"}, "Fuc(a1-2)Gal(b1-3)GlcNAc": {"target": "Fuc(a1-2)Gal(b1-3)GlcNAc", "in_short": "as §1"}, "[6]": {"target": "Fuc(a1-2)Gal(b1-3)GlcNAc(b1-2)Man(a1-3)[Fuc(a1-2)Gal(b1-3)GlcNAc(b1-2)Man(a1-6)]Man(b1-4)GlcNAc(b1-4)GlcNAc", "in_short": "as §1"}, "[7]": {"target": "Fuc(a1-2)Gal(b1-3)GlcNAc(b1-2)Man(a1-3)[Fuc(a1-2)Gal(b1-3)GlcNAc(b1-2)Man(a1-6)]Man(b1-4)GlcNAc(b1-4)[Fuc(a1-6)]GlcNAc", "in_short": "as §1"}, "[8]": {"target": "Fuc(a1-2)Gal(b1-3)GlcNAc(b1-3)Gal(b1-4)Glc", "in_short": "as §1"}, "[9]": {"target": "Fuc(a1-2)Gal(b1-3)GlcNAc(b1-3)GalNAc", "in_short": "as §1"}, "[10]": {"target": "Fuc(a1-2)Gal(b1-3)GlcNAc(b1-3)[Fuc(a1-2)Gal(b1-3)GlcNAc(b1-6)]GalNAc", "in_short": "as §1"}, "[11]": {"target": "Fuc(a1-2)Gal(b1-3)GlcNAc(b1-3)[Gal(b1-4)GlcNAc(b1-6)]Gal(b1-4)Glc", "in_short": "as §1"}, "[12]": {"target": "Fuc(a1-2)Gal(b1-3)GlcNAc(b1-3)[Neu5Ac(a2-6)Gal(b1-4)GlcNAc(b1-6)]Gal(b1-4)Glc", "in_short": "as §1"}, "[13]": {"target": "Fuc(a1-2)Gal(b1-3)GlcNAc6S", "in_short": "as §1"}, "[14]": {"target": "Fuc(a1-2)Gal(b1-3)[Fuc(a1-4)]GlcNAc", "in_short": "as §1"}, "[15]": {"target": "Fuc(a1-2)Gal(b1-3)[Fuc(a1-4)]GlcNAc(b1-2)Man(a1-3)[Fuc(a1-2)Gal(b1-3)[Fuc(a1-4)]GlcNAc(b1-2)Man(a1-3)]Man(b1-4)GlcNAc(b1-4)GlcNAc", "in_short": "as §1"}, "[16]": {"target": "Fuc(a1-2)Gal(b1-3)[Fuc(a1-4)]GlcNAc(b1-2)Man(a1-3)[Fuc(a1-2)Gal(b1-3)[Fuc(a1-4)]GlcNAc(b1-2)Man(a1-6)]Man(b1-4)GlcNAc(b1-4)[Fuc(a1-6)]GlcNAc(b1-4)[Fuc(a1-6)]GlcNAc", "in_short": "as §1"}, "[17]": {"target": "Fuc(a1-2)Gal(b1-3)[Fuc(a1-4)]GlcNAc(b1-3)[Fuc(a1-3)[Gal(b1-4)]GlcNAc(b1-6)]Gal(b1-4)Glc", "in_short": "as §1"}, "[18]": {"target": "Fuc(a1-2)Gal(b1-3)[Fuc(a1-4)]GlcNAc(b1-3)[Gal(b1-4)GlcNAc(b1-6)]Gal(b1-4)Glc", "in_short": "as §1"}, "[19]": {"target": "Fuc(a1-2)Gal(b1-4)Fuc(a1-3)]GlcNAc(b1-2)Man(a1-3)[Fuc(a1-2)Gal(b1-4)[Fuc(a1-3)]GlcNAc(b1-2)Man(a1-6)]Man(b1-4)GlcNAc(b1-4)GlcNAc", "in_short": "as §1"}, "Fuc(a1-2)Gal(b1-4)Glc": {"target": "Fuc(a1-2)Gal(b1-4)Glc", "in_short": "as §1"}, "Fuc(a1-2)Gal(b1-4)Glc6S": {"target": "Fuc(a1-2)Gal(b1-4)Glc6S", "in_short": "as §1"}, "Fuc(a1-2)Gal(b1-4)GlcNAc": {"target": "Fuc(a1-2)Gal(b1-4)GlcNAc", "in_short": "as §1"}, "[20]": {"target": "Fuc(a1-2)Gal(b1-4)GlcNAc(b1-2)Man", "in_short": "as §1"}, "[21]": {"target": "Fuc(a1-2)Gal(b1-4)GlcNAc(b1-2)Man(a1-3)[Fuc(a1-2)Gal(b1-4)GlcNAc(b1-2)Man(a1-6)]Man(b1-4)GlcNAc(b1-4)GlcNAc", "in_short": "as §1"}, "[22]": {"target": "Fuc(a1-2)Gal(b1-4)GlcNAc(b1-2)Man(a1-3)[Fuc(a1-2)Gal(b1-4)GlcNAc(b1-2)Man(a1-6)]Man(b1-4)GlcNAc(b1-4)[Fuc(a1-6)]GlcNAc", "in_short": "as §1"}, "[23]": {"target": "Fuc(a1-2)Gal(b1-4)GlcNAc(b1-2)[Fuc(a1-2)Gal(b1-4)GlcNAc(b1-4)]Man(a1-3)[Fuc(a1-2)Gal(b1-4)GlcNAc(b1-2)Man(a1-6)]Man(b1-4)GlcNAc(b1-4)GlcNAc", "in_short": "as §1"}, "[24]": {"target": "Fuc(a1-2)Gal(b1-4)GlcNAc(b1-3)Gal(b1-4)GlcNAc", "in_short": "as §1"}}, "note": "The other results are listed elsewhere or left out."}
{"binder": "B1", "values": [{"measurement": "glycan array binding signal (z-score)", "setting": "Fuc(a1-2)Gal", "result": -0.354}, {"measurement": "glycan array binding signal (z-score)", "setting": "Fuc(a1-2)Gal(b1-3)GalNAc", "result": -0.316}, {"measurement": "glycan array binding signal (z-score)", "setting": "[1]", "result": -0.382}, {"measurement": "glycan array binding signal (z-score)", "setting": "[2]", "result": -0.366}, {"measurement": "glycan array binding signal (z-score)", "setting": "[3]", "result": -0.331}, {"measurement": "glycan array binding signal (z-score)", "setting": "[4]", "result": -0.413}, {"measurement": "glycan array binding signal (z-score)", "setting": "[5]", "result": -0.353}, {"measurement": "glycan array binding signal (z-score)", "setting": "Fuc(a1-2)Gal(b1-3)GlcNAc", "result": -0.326}, {"measurement": "glycan array binding signal (z-score)", "setting": "[6]", "result": 3.64}, {"measurement": "glycan array binding signal (z-score)", "setting": "[7]", "result": -0.306}, {"measurement": "glycan array binding signal (z-score)", "setting": "[8]", "result": -0.394}, {"measurement": "glycan array binding signal (z-score)", "setting": "[9]", "result": -0.34}, {"measurement": "glycan array binding signal (z-score)", "setting": "[10]", "result": 3.16}, {"measurement": "glycan array binding signal (z-score)", "setting": "[11]", "result": -0.27}, {"measurement": "glycan array binding signal (z-score)", "setting": "[12]", "result": -0.432}, {"measurement": "glycan array binding signal (z-score)", "setting": "[13]", "result": -0.376}, {"measurement": "glycan array binding signal (z-score)", "setting": "[14]", "result": -0.34}, {"measurement": "glycan array binding signal (z-score)", "setting": "[15]", "result": -0.093}, {"measurement": "glycan array binding signal (z-score)", "setting": "[16]", "result": -0.292}, {"measurement": "glycan array binding signal (z-score)", "setting": "[17]", "result": -0.38}, {"measurement": "glycan array binding signal (z-score)", "setting": "[18]", "result": -0.345}, {"measurement": "glycan array binding signal (z-score)", "setting": "[19]", "result": 1.05}, {"measurement": "glycan array binding signal (z-score)", "setting": "Fuc(a1-2)Gal(b1-4)Glc", "result": -0.336}, {"measurement": "glycan array binding signal (z-score)", "setting": "Fuc(a1-2)Gal(b1-4)Glc6S", "result": -0.356}, {"measurement": "glycan array binding signal (z-score)", "setting": "Fuc(a1-2)Gal(b1-4)GlcNAc", "result": -0.381}, {"measurement": "glycan array binding signal (z-score)", "setting": "[20]", "result": -0.348}, {"measurement": "glycan array binding signal (z-score)", "setting": "[21]", "result": 0.695}, {"measurement": "glycan array binding signal (z-score)", "setting": "[22]", "result": -0.364}, {"measurement": "glycan array binding signal (z-score)", "setting": "[23]", "result": -0.321}, {"measurement": "glycan array binding signal (z-score)", "setting": "[24]", "result": -0.346}]}
